Hit rate of the full screen: of about 320,000 compounds, about 200 (0.062%) were called active. The inconclusive results got no clear call from the source; some entries with a clear call stand among them for comparison. Calls follow the shape of the dose curve; as a rule, active = well fitted activation curve with a large enough effect; inconclusive = small, poorly fitted or top-dose-only effect; inactive = no such curve, though single readings can be large or run the other way. No potency is given beside an inconclusive call; the fits are too rough.
Experiment: qHTS assay for re-activators of p53 using a Luc reporter; also: nearly all actives have a fitted effect of over 45% in size; as to activity change, positive = activation: % of control where 0% means no effect
Details: H1299 p53-A138V BP100-luciferase reporter, luminescence, 24 h; series mostly up to 92.2 µM; activity change, positive = activation: at the top concentration
Method in brief: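 H1299 (p53-null), stable ts p53-A138V + BP100-Luc; 1000 cells/well, Opti-MEM/10% FBS; cpd 4 pt, 1:5; 24 h, 37 deg C, 5% CO2; detection reagent 10 min RT; luminescence.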
Potency is read from the fitted curve at half-maximal effect; tags tell the direction and shape of the fitted curve.

| SMILES | Potency | activity change, positive = activation |
| --- | --- | --- |
| CCSc1nsc(NC(=O)Nc2ccc(F)cc2F)n1 | inconclusive [activator, full curve, poor fit] |  |
| c1ccc(CCc2nc(-c3cccnc3)no2)cc1 | inconclusive [activator, single point] |  |
| COc1ccc(OC)c(/C=C2\SC(=S)N(Cc3cccnc3)C2=O)c1 | inconclusive [activator, single point] |  |
| CCc1nc(CN(C)C(=O)C2CCC(=O)N(CCc3cccc(F)c3)C2)no1 (centres undefined) | inconclusive [activator, partial curve, poor fit] |  |
| CCN(CC)c1ccc(NC(=O)C(C)C)cc1 | inconclusive [activator, partial curve, poor fit] |  |
| Cc1ccc(NC(=O)COc2ccc3c(c2)OCO3)c(C)c1 | inconclusive [activator, partial curve, poor fit] |  |
| Cc1ccc(SCC(=O)NCCc2ccc(F)cc2)cc1 | inconclusive [activator, single point] |  |
| N#C/C(N=Nc1ccccc1O)=N\Nc1ccccc1O | inconclusive [activator, single point] |  |
| CC(/C=C/C(=O)c1ccc(C)cc1)=C\c1ccccc1 | inconclusive [activator, partial curve, poor fit] |  |
| Cc1nc2c(-c3ccc(F)cc3)cnn2c(N)c1-c1ccccc1 | inconclusive [activator, full curve, poor fit] |  |
| Cc1cc(-c2ccc(C(=O)O)s2)cnc1N |  | inactive: 2.19% |
| Cc1ccc(C(=O)Nc2sc3c(c2C(=O)O)CCCC3)o1 | inconclusive [activator, partial curve, poor fit] |  |
| CCC1CCCCN1CCCCOc1cccc(Cl)c1 (centres undefined) |  | inactive: -9.51% |
| Cc1ccc(Nc2c([N+](=O)[O-])c(=O)oc3ccccc23)cc1C |  | inactive: 3.2% |
| O=C(OCc1c(-c2ccccc2)ncc2ccccc12)N1CCOCC1 | inconclusive [activator, partial curve, poor fit] |  |
| CC[C@@H]1C(c2ccccc2)=NN(c2ccccc2)[C@H]1C(=O)N1CCOC1=O |  | inactive: -4.31% |
| COC(=O)c1c(NC(=O)c2ccccc2OC)sc(C(=O)N2CCOCC2)c1C |  | inactive: 0.996% |
| O=C(Nc1cccc(O)c1)c1noc2c1CCCCC2 | inconclusive [activator, partial curve, poor fit] |  |
| O=C(Nc1ccccc1C(=O)O)c1ccc(CN2C(=O)c3ccccc3C2=O)cc1 | inconclusive [activator, single point] |  |
| Cc1nc2cc(NC(=O)c3ccc(Br)s3)ccc2s1 | inconclusive [activator, partial curve, poor fit] |  |
| Cc1ccc(NC(=O)COC(=O)C2=NN(c3ccccc3)C(=O)CC2)c(Br)c1 | inconclusive [activator, single point] |  |
| COc1ccc(C(=O)N2CCN(C)C(=O)[C@@H]2C)cc1OC1CCN(C(C)C)CC1 | inconclusive [activator, partial curve, poor fit] |  |
| COc1ccc(NC(=O)CSc2ccc3c(c2)OCCO3)cc1 | inconclusive [activator, single point] |  |

| SMILES | Potency | activity change, positive = activation |
| --- | --- | --- |
| Cc1ccc(Nc2n[nH]c(C)c2[N+](=O)[O-])cc1 | inconclusive [activator, partial curve, poor fit] |  |
| O=C(/C=C/c1c(F)cccc1Cl)Nc1ccc(S(=O)(=O)Nc2ncccn2)cc1 |  | inactive: -9.26% |
| O=C(COc1ccc(C(=O)c2ccccc2)cc1)NC1CCCCCC1 |  | inactive: -6.71% |
| Cn1c2ccccc2c2ncn(CCC3=CCCCC3)c(=O)c21 | inconclusive [activator, partial curve, poor fit] |  |
| COc1ccc(NC(=O)C2CCN(S(=O)(=O)c3cccc4cccnc34)CC2)cc1OC |  | inactive: -0.192% |
| CCCCC(=O)Nc1cnc(NC(=O)c2ccco2)cc1C |  | inactive: 30% |
| Cc1ccc(NC(=O)Nc2cccs2)cc1 | inconclusive [activator, full curve, poor fit] |  |
| COc1ccccc1C(=O)O/N=C(\N)c1ccccc1Cl | inconclusive [activator, full curve, poor fit] |  |
| Cc1nc(-c2cccc(NC(=O)c3ccc(Br)o3)c2)cs1 |  | inactive: 23.4% |
| Brc1ccc(-c2cn3ccccc3n2)s1 | inconclusive [activator, full curve, poor fit] |  |
| CC1=CC(=O)C=C(C)C1=NOC(=O)/C=C\c1ccccc1 | inconclusive [activator, partial curve, poor fit] |  |
| C=CCOc1cccc(C2C(C(=O)c3cc4ccccc4o3)=C(O)C(=O)N2c2cc(C)on2)c1 (centres undefined) | inconclusive [activator, single point] |  |
| COc1ccc(C2CC(=O)c3sc(NC(C)=O)nc3C2)cc1 (centres undefined) | inconclusive [activator, partial curve, poor fit] |  |
| Cc1ccc2oc(=O)c(/C=C(\O)c3cccs3)nc2c1 | inconclusive [activator, full curve, poor fit] |  |
| CN(CC(=O)Nc1cccc(F)c1)C(=O)C1CCN(C(=O)c2ccc(Cl)cc2)CC1 | inconclusive [activator, single point] |  |
| CCn1c(/C=N/c2nc3ccccc3n2C)nc2ccccc21 | inconclusive [activator, partial curve, poor fit] |  |
| Cc1cc(C)c2nc(NNC(=O)c3cc(-c4cccs4)nc4ccccc34)sc2c1 | inconclusive [activator, partial curve, poor fit] |  |
| CN1CCN(CC(=O)N(C)c2nc(-c3ccccc3)cs2)CC1 | inconclusive [activator, partial curve, poor fit] |  |
| CC(=O)c1cccc(Nc2nc(-c3sc(N)nc3C)cs2)c1 |  | inactive: 10.3% |
| O=C1N/C(=N/c2ccccn2)SC1Cc1ccccc1 (centres undefined) |  | inactive: -0.464% |
| Cc1ccc(NC(=S)c2ccc(N(C)C)cc2)cc1 | inconclusive [activator, partial curve, poor fit] |  |
| O=C1c2ccccc2NC(c2ccccc2)N1/N=C/c1ccccc1 (centres undefined) |  | inactive: 6.59% |
| COc1cccc(/C=N/NC(=S)NCCc2ccccc2)c1OC | inconclusive [activator, full curve, poor fit] |  |

| SMILES | Potency | activity change, positive = activation |
| --- | --- | --- |
| Cc1cc(C(=O)Nc2ccccn2)cs1 | inconclusive [activator, partial curve, poor fit] |  |
| COc1ccc(N=C2C(=Nc3ccc(OC)cc3)N(c3ccc(OC)cc3)C(=S)N2C(=O)c2ccc(OC)cc2)cc1 | inconclusive [activator, single point] |  |
| COc1cccc(OC)c1C(=O)Nc1ccc2c(c1)CCCN2S(=O)(=O)c1ccc(C)cc1 |  | inactive: -1.45% |
| O=C(CSCc1ccc(Br)cc1)N1CCOCC1 | inconclusive [activator, full curve, poor fit] |  |
| COc1cccc(/C(C#N)=C/c2c(-c3ccc(Cl)cc3)nc3c(C)cccn23)c1 |  | inactive: -0.812% |
| O=C(NC1CCCC1)c1cc(-c2cccs2)on1 |  | inactive: 88.2% |
| CC(=O)C1=C(C)NC(SCC(=O)c2ccc(Cl)cc2)=C(C#N)C1CC(C)C (centres undefined) |  | inactive: 6.66% |
| COc1ccc(NC(=O)C2=C(C)C(=O)OC23CCC(C)CC3)cc1Cl (centres undefined) |  | inactive: -2.02% |
| CCOC(=O)N1CCC(NC(=O)c2cc(S(=O)(=O)N3CCc4ccccc43)cn2C)CC1 | inconclusive [activator, single point] |  |
| CCCCNC(=O)COC(=O)c1c2c(nc3ccccc13)/C(=C/c1cccs1)CC2 | inconclusive [activator, partial curve, poor fit] |  |
| O=C(CCCCCN1C(=O)CCC1=O)Nc1ccc2c(c1)OCO2 | inconclusive [activator, full curve, poor fit] |  |
| CCOc1ccc2oc(C(=O)O)c(C)c2c1 |  | inactive: 2.18% |
| COc1ccc(NC(=O)C23CCC(C2)C(C)(C)C3=O)cc1 (centres undefined) | inconclusive [activator, single point] |  |
| Cc1ccccc1NC(=O)c1ccc(NC(=O)C2CCCO2)cc1 (centres undefined) | inconclusive [activator, single point] |  |
| O=C(OC(c1ccc(NS(=O)(=O)c2ccccc2)cc1)(C(F)(F)F)C(F)(F)F)c1ccccc1 | inconclusive [activator, single point] |  |
| CCOc1cnc(-c2ccc(OC)cc2)o1 | inconclusive [activator, full curve, poor fit] |  |
| CC(=O)c1ccc(NC(=S)NCCc2ccc(S(N)(=O)=O)cc2)cc1 | inconclusive [activator, partial curve, poor fit] |  |
| O=C(N/N=C/c1ccccc1O)c1ccncc1 |  | inactive: 17.1% |
| Cn1cccc1-c1cc(C(=O)N/N=C/c2cccc(O)c2)[nH]n1 | inconclusive [activator, single point] |  |
| O=C(c1cc2c(=O)oc3ccccc3c2s1)N1CCOCC1 | inconclusive [activator, single point] |  |
| Cc1nc2nc(-c3cccnc3)nn2c(C)c1Cl | inconclusive [activator, full curve, poor fit] |  |
| CSc1nc(-c2ccc(Cl)cc2)nn1S(=O)(=O)c1ccc(Cl)cc1 | inconclusive [activator, partial curve, poor fit] |  |
| O=c1cc(O)c2sc(Nc3ccc(F)cc3)nc2[nH]1 |  | inactive: 2.01% |
